Laboratory results taken from article PMC5062570 (Nature Communications, 2016).

How the values were obtained:
[1] = target: PF-7802-labelled proteins in ARPE-19 cells (Homo sapiens, UniProt Q99536); conditions: VAT1 Synaptic vesicle membrane protein VAT-1 homolog (Q99536)
[2] = target: PF-7802-labelled proteins in ARPE-19 cells (Homo sapiens, UniProt P40939); conditions: P40939 HADHA Trifunctional enzyme subunit alpha, mitochondrial
[3] = target: PF-7802-labelled proteins in ARPE-19 cells (Homo sapiens, UniProt Q9UHD8)
Chain of UniProt Q9UHD8 (Q9UHD8 whole entry): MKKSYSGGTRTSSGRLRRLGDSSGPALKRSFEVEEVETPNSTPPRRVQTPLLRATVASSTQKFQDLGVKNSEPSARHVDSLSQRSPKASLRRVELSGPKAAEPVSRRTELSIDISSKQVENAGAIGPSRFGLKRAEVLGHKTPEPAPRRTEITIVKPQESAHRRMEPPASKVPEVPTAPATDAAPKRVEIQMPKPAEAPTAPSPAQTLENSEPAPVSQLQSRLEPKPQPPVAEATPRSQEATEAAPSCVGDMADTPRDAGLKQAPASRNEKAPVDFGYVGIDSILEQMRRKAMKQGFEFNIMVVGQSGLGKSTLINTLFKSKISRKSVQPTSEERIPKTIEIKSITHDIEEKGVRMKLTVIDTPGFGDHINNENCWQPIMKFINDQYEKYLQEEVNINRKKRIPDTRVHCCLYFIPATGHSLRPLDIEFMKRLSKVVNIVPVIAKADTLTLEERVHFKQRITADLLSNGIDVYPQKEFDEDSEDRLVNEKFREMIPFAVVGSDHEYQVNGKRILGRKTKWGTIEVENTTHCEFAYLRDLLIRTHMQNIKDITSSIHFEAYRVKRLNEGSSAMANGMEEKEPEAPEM

[4] = target: PF-7802-labelled proteins in ARPE-19 cells (Homo sapiens, UniProt P62070)
Chain of UniProt P62070 (P62070 whole entry): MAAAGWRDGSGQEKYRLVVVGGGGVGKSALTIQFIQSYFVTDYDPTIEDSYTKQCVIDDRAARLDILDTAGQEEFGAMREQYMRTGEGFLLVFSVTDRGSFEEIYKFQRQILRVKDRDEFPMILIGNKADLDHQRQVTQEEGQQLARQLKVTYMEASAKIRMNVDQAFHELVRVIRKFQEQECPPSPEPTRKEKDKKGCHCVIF

[5] = target: PF-7802-labelled proteins in ARPE-19 cells (Homo sapiens, UniProt P13612); conditions: protein ITGA4 Integrin alpha-4 (P13612); one column per replicate
[6] = target: PF-7802-labelled proteins in ARPE-19 cells (Homo sapiens, UniProt Q01081); conditions: U2AF1 Splicing factor U2AF 35 kDa subunit (Q01081)
Chain of UniProt Q01081 (Q01081 whole entry): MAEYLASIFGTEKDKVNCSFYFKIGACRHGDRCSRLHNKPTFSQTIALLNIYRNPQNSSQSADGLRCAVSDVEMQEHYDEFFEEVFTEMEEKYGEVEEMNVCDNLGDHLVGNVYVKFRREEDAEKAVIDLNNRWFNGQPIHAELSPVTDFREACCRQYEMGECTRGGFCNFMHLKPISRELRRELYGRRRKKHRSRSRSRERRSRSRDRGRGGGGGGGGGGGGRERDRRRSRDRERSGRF

[7] = target: PF-7802-labelled proteins in ARPE-19 cells (Homo sapiens, UniProt P61916); conditions: protein NPC2 Epididymal secretory protein E1 (P61916); replicates in separate columns
[8] = target: PF-7802-labelled proteins in ARPE-19 cells (Homo sapiens, UniProt P23368); conditions: protein ME2 NAD-dependent malic enzyme, mitochondrial (P23368); replicates in separate columns
[9] = target: PF-7802-labelled proteins in ARPE-19 cells (Homo sapiens, UniProt P22314); conditions: UBA1 Ubiquitin-like modifier-activating enzyme 1 (P22314)
Chain of UniProt P22314 (P22314 whole entry): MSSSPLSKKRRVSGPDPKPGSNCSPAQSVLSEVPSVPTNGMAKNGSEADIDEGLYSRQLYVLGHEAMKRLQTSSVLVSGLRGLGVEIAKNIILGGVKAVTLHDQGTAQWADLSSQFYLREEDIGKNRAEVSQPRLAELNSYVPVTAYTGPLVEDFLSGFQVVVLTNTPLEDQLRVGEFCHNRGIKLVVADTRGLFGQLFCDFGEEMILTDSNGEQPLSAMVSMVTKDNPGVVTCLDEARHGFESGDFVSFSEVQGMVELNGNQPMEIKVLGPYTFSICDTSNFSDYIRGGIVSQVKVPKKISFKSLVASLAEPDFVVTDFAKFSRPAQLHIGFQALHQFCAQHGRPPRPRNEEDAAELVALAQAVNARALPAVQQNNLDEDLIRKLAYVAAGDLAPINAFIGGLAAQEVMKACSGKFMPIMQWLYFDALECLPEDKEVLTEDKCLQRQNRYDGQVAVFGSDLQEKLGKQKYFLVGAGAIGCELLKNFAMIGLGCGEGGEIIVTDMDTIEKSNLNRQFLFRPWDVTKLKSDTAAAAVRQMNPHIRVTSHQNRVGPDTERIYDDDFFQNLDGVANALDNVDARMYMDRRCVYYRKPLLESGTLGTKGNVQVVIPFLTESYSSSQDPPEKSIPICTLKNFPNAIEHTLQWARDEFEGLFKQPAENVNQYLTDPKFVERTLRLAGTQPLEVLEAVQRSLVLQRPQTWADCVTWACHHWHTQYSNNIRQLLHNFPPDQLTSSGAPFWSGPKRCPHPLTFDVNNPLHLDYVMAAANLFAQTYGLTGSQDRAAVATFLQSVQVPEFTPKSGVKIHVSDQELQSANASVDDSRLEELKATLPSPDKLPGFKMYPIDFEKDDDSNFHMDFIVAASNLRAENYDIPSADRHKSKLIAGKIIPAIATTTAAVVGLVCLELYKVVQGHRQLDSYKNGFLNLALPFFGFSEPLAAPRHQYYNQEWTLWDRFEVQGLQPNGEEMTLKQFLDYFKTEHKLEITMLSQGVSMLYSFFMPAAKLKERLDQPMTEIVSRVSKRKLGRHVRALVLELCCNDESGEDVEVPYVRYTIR

[10] = target: PF-7802-labelled proteins in ARPE-19 cells (Homo sapiens, UniProt P23284)
[11] = target: PF-7802-labelled proteins in ARPE-19 cells (Homo sapiens, UniProt P11717); conditions: protein IGF2R Cation-independent mannose-6-phosphate receptor (P11717); one column per replicate
[12] = target: PF-7802-labelled proteins in ARPE-19 cells (Homo sapiens, UniProt Q5QNW6)
[13] = target: PF-7802-labelled proteins in ARPE-19 cells (Homo sapiens, UniProt P07195); conditions: protein LDHB L-lactate dehydrogenase B chain (P07195); replicates in separate columns
Chain of UniProt P07195 (P07195 whole entry): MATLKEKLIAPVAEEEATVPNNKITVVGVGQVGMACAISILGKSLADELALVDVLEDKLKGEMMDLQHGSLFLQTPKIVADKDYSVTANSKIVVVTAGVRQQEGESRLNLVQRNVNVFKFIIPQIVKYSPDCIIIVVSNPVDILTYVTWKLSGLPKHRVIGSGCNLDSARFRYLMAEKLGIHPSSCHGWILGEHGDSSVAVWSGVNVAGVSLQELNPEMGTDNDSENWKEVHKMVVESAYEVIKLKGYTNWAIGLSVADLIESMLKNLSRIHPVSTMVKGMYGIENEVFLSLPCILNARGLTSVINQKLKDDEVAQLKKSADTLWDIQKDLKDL

[14] = target: PF-7802-labelled proteins in ARPE-19 cells (Homo sapiens, UniProt Q07157); conditions: TJP1 Tight junction protein ZO-1 (Q07157)
[15] = target: PF-7802-labelled proteins in ARPE-19 cells (Homo sapiens, UniProt Q06323); conditions: protein PSME1 Proteasome activator complex subunit 1, Q06323
Chain of UniProt Q06323 (Q06323 whole entry): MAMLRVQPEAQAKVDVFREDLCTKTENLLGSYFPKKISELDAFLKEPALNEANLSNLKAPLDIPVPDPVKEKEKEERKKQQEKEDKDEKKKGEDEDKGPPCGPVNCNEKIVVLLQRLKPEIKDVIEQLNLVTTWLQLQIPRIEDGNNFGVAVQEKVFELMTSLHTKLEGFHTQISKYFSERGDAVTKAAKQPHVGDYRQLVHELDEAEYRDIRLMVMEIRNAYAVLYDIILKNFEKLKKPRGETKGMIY

[16] = target: PF-7802-labelled proteins in ARPE-19 cells (Homo sapiens, UniProt P09936); conditions: UCHL1 Ubiquitin carboxyl-terminal hydrolase isozyme L1 (P09936)
Chain of UniProt P09936 (P09936 whole entry): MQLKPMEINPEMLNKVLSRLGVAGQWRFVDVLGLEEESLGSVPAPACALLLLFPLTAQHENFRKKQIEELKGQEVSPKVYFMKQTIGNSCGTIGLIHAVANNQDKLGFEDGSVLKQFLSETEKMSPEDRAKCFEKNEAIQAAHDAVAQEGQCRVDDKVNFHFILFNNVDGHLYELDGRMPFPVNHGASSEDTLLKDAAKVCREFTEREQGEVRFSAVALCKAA

[17] = target: PF-7802-labelled proteins in ARPE-19 cells (Homo sapiens, UniProt P21964); conditions: protein COMT Catechol O-methyltransferase (P21964)
Chain of UniProt P21964 (P21964 whole entry): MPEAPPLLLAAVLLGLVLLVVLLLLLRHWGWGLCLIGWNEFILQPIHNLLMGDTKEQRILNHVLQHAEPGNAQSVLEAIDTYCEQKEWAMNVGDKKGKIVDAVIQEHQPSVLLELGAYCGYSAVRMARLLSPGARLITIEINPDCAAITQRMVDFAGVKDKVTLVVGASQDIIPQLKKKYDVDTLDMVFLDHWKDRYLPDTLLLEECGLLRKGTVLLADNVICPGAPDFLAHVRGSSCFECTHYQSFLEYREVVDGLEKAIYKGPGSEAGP

[18] = target: PF-7802-labelled proteins in ARPE-19 cells (Homo sapiens, UniProt Q04837); conditions: SSBP1 Single-stranded DNA-binding protein, mitochondrial (Q04837)
[19] = target: PF-7802-labelled proteins in ARPE-19 cells (Homo sapiens, UniProt P42785); conditions: protein PRCP Lysosomal Pro-X carboxypeptidase, P42785
[20] = target: PF-7802-labelled proteins in ARPE-19 cells (Homo sapiens, UniProt Q9H0U4); conditions: protein RAB1B Ras-related protein Rab-1B, Q9H0U4
Chain of UniProt Q9H0U4 (Q9H0U4 whole entry): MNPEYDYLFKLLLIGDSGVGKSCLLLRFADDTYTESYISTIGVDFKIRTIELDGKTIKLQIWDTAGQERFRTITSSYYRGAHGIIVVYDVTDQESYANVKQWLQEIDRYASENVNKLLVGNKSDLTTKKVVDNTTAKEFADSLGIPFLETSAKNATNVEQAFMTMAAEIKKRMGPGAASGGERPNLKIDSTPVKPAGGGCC

[21] = target: PF-7802-labelled proteins in ARPE-19 cells (Homo sapiens, UniProt P07602); conditions: protein PSAP Proactivator polypeptide, P07602
[22] = target: PF-7802-labelled proteins in ARPE-19 cells (Homo sapiens, UniProt Q15366); conditions: protein PCBP2 Poly(rC)-binding protein 2 (Q15366); replicates in separate columns
Chain of UniProt Q15366 (Q15366 whole entry): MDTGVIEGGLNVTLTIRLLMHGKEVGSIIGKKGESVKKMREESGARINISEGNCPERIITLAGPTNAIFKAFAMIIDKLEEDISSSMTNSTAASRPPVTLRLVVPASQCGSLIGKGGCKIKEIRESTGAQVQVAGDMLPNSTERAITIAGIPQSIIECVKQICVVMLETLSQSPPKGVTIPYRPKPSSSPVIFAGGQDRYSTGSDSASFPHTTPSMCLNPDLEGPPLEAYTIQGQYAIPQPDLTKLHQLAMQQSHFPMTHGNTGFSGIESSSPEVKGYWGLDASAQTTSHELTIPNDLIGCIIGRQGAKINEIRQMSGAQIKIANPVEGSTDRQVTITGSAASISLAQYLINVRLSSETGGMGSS

[23] = target: PF-7802-labelled proteins in ARPE-19 cells (Homo sapiens, UniProt P05386); conditions: protein RPLP1 60S acidic ribosomal protein P1, P05386
Chain of UniProt P05386 (P05386 whole entry): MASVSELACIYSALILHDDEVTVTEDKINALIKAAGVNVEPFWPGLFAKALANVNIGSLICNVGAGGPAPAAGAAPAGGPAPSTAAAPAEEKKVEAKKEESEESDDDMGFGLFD

[24] = target: PF-7802-labelled proteins in ARPE-19 cells (Homo sapiens, UniProt Q15019); conditions: SEPT2 Septin-2 (Q15019)
Chain of UniProt Q15019 (Q15019 whole entry): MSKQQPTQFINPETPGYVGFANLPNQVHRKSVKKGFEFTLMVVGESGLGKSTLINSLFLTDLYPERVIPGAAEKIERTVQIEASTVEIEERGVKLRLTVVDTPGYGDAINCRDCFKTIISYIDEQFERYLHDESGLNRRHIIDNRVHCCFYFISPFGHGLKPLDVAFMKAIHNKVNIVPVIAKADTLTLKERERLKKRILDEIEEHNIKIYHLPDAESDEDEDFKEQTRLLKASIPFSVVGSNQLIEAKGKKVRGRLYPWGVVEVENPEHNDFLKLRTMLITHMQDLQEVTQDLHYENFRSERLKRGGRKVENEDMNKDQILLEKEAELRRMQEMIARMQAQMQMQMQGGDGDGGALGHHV

[25] = target: PF-7802-labelled proteins in ARPE-19 cells (Homo sapiens, UniProt P32969); conditions: protein RPL9P9 60S ribosomal protein L9, P32969
[26] = target: PF-7802-labelled proteins in ARPE-19 cells (Homo sapiens, UniProt Q16798); conditions: protein ME3 NADP-dependent malic enzyme, mitochondrial (Q16798); replicates in separate columns
[27] = target: PF-7802-labelled proteins in ARPE-19 cells (Homo sapiens, UniProt P31946); conditions: protein YWHAB 14-3-3 protein beta/alpha (P31946); replicate R1
Chain of UniProt P31946 (P31946 whole entry): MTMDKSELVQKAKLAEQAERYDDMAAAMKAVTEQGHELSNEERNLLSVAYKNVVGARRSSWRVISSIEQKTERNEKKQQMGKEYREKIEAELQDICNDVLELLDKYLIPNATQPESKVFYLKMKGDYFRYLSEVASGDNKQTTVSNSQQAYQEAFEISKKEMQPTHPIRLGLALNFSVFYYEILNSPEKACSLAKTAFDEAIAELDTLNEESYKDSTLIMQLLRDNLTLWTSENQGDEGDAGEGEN

Chain of UniProt Q99536 (Q99536 whole entry): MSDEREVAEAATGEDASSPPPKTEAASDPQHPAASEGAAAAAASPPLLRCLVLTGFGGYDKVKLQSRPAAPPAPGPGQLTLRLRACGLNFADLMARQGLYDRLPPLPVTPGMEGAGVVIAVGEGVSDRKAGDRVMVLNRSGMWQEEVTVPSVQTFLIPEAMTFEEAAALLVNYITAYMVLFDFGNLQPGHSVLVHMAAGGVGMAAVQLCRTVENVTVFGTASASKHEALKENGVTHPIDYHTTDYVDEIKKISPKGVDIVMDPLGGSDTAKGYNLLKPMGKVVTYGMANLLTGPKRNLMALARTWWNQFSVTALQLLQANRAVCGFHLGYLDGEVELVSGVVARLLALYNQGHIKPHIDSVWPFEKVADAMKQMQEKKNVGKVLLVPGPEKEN

CNC1CCN(C(=O)C[C@@H](Cc2ccccc2)C(=O)N[C@@H](CSC)C(=O)N[C@@H](CC2CCCCC2)[C@@H](O)C(=O)OC(C)C)CC1 [CP-108671, reference compound]
Median SILAC Ratio (Heavy/Light) [1]: 1.26 | SILAC ratio (DMSO/CP-108671) [2]: 0.84 | SILAC ratio (DMSO/CP-108671) ([3]; Q9UHD8 SEPT9 Septin-9): 0.67 | Median SILAC Ratio (Heavy/Light) ([3]; SEPT9 Septin-9 (Q9UHD8)): 1.4989 | SILAC ratio (DMSO/CP-108671) ([4]; P62070 RRAS2 Ras-related protein R-Ras2): 0.88 | Median SILAC Ratio (Heavy/Light) ([4]; protein RRAS2 Ras-related protein R-Ras2, P62070): 1.131 | Median SILAC Ratio (Heavy/Light) [5]: 1.271 | Median SILAC Ratio (Heavy/Light) [6]: 0.6002 | Median SILAC Ratio (Heavy/Light) [7]: 0.6581 | Median SILAC Ratio (Heavy/Light) [8]: 2.744 | Median SILAC Ratio (Heavy/Light) [9]: 2.31 | SILAC ratio (DMSO/CP-108671) ([10]; P23284 PPIB Peptidyl-prolyl cis-trans isomerase B): 0.87 | Median SILAC Ratio (Heavy/Light) ([10]; protein PPIB Peptidyl-prolyl cis-trans isomerase B, P23284): 1.163 and 0.8743 | Median SILAC Ratio (Heavy/Light) [11]: 0.7419 | SILAC ratio (DMSO/CP-108671) ([12]; Q5QNW6 HIST2H2BF Histone H2B type 2-F): 0.96 | Median SILAC Ratio (Heavy/Light) ([12]; protein HIST2H2BF Histone H2B type 2-F (Q5QNW6), one column per replicate): 1.044 and 1.132 | Median SILAC Ratio (Heavy/Light) [13]: 2.135

Cc1cc([C@H]2C[C@H]3[C@@H](C)SC(N)=N[C@@]3(c3ccc(F)cc3F)CO2)on1 [PF-9283]
Median SILAC Ratio (Heavy/Light) [14]: 1.387 | Median SILAC Ratio (Heavy/Light) [15]: 0.5604 | Median SILAC Ratio (Heavy/Light) [16]: 1.087 | Median SILAC Ratio (Heavy/Light) [17]: 0.6078 and 0.8309 | Median SILAC Ratio (Heavy/Light) [18]: 0.8749 | Median SILAC Ratio (Heavy/Light) [19]: 1.1158 | Median SILAC Ratio (Heavy/Light) [20]: 1.537 and 0.9161 | Median SILAC Ratio (Heavy/Light) [21]: 0.7977 | Median SILAC Ratio (Heavy/Light) [22]: 3.513 | Median SILAC Ratio (Heavy/Light) [23]: 1.074 | Median SILAC Ratio (Heavy/Light) [24]: 1.395 | Median SILAC Ratio (Heavy/Light) [25]: 1.099 and 1.768 | Median SILAC Ratio (Heavy/Light) [26]: 0.9366 | Median SILAC Ratio (Heavy/Light) [27]: 1.462

Several values for one entry are separate records, joined by “and”; a condition that tells them apart may be missing. Identical values can stand only once.
